Reference: PMC10320511
Results are given in words; binding and its absence hold for the method and conditions named. Binding seen in cells or lysates may run through a third protein. Some binding calls cover weakened binding; strength is not graded here. Where a sequence is shown, tags or fusion partners need not be part of it.

Protein sequences, listed by entry. Tags and fused reporters are not part of them.
UniProt Q01371: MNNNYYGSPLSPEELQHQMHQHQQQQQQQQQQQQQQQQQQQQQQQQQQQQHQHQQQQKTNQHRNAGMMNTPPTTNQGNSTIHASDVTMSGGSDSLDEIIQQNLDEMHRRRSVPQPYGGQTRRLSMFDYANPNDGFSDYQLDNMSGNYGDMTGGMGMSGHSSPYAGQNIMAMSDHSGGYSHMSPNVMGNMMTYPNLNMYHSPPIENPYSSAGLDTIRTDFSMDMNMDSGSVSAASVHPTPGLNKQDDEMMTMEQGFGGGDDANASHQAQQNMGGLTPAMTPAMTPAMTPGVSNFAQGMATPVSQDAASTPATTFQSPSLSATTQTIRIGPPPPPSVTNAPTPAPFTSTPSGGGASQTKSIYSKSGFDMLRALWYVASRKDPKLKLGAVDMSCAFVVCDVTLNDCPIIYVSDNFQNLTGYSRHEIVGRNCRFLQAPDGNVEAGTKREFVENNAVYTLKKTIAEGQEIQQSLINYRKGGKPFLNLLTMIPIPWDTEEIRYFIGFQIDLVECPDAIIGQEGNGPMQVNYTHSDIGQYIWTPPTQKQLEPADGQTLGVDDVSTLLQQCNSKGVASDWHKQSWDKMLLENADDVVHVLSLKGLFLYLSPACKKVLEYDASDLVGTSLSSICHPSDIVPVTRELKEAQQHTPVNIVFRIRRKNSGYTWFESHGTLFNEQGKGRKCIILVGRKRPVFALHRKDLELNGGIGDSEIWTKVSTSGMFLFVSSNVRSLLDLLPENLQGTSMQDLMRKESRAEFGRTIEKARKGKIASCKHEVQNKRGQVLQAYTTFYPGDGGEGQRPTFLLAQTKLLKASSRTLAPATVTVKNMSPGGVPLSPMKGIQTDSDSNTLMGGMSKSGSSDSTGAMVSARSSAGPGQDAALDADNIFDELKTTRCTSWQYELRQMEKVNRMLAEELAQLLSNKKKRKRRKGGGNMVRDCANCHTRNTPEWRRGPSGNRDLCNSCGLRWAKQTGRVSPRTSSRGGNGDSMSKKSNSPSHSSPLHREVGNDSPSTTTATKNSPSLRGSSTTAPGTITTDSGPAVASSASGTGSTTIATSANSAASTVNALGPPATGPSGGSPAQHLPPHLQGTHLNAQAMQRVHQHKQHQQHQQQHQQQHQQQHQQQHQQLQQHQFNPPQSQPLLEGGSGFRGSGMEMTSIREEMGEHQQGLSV

Columns and labels:
[1] = target: T1, FRQ Δ604–646, V5H6-tagged (Neurospora crassa) (UniProt P19970); assay: co-IP; V5H6-tagged FRQ (wild type or mutant) pulled down with V5 agarose from Neurospora lysate (cultures in the light, 25 °C); 50 mM Hepes pH 7.4, 137 mM NaCl, 10% glycerol, 0.4% NP-40; 4 °C, 2 h; Western blot with FRQ, FRH, WC-1 and WC-2 antibodies
T1 sequence: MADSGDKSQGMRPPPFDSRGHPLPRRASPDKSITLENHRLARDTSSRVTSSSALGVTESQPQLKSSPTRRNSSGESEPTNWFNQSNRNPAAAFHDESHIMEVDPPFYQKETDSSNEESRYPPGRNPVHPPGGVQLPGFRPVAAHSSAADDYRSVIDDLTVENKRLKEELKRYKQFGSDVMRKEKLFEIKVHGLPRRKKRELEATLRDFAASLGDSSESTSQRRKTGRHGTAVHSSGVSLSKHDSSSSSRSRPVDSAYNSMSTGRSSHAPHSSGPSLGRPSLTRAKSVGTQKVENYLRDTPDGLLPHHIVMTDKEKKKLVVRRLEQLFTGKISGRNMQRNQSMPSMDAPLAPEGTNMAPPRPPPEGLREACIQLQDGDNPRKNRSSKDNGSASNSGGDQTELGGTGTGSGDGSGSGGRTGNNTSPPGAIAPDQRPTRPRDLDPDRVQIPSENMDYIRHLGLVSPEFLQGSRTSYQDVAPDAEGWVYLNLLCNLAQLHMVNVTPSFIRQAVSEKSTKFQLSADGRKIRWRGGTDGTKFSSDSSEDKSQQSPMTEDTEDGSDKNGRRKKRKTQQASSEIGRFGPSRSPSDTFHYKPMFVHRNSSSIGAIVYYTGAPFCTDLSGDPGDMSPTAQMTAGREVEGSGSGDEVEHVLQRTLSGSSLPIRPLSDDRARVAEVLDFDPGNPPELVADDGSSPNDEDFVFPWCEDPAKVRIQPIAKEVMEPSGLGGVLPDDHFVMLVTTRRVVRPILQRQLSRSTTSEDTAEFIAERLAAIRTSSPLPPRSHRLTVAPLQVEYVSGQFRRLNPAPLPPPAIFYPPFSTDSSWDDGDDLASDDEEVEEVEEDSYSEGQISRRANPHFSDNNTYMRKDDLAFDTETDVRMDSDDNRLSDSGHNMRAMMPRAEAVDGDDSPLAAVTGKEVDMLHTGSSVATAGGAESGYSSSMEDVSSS

[2] = target: T2, FRQ Δ250–310, V5H6-tagged (Neurospora crassa) (UniProt P19970); assay: as above
T2 sequence: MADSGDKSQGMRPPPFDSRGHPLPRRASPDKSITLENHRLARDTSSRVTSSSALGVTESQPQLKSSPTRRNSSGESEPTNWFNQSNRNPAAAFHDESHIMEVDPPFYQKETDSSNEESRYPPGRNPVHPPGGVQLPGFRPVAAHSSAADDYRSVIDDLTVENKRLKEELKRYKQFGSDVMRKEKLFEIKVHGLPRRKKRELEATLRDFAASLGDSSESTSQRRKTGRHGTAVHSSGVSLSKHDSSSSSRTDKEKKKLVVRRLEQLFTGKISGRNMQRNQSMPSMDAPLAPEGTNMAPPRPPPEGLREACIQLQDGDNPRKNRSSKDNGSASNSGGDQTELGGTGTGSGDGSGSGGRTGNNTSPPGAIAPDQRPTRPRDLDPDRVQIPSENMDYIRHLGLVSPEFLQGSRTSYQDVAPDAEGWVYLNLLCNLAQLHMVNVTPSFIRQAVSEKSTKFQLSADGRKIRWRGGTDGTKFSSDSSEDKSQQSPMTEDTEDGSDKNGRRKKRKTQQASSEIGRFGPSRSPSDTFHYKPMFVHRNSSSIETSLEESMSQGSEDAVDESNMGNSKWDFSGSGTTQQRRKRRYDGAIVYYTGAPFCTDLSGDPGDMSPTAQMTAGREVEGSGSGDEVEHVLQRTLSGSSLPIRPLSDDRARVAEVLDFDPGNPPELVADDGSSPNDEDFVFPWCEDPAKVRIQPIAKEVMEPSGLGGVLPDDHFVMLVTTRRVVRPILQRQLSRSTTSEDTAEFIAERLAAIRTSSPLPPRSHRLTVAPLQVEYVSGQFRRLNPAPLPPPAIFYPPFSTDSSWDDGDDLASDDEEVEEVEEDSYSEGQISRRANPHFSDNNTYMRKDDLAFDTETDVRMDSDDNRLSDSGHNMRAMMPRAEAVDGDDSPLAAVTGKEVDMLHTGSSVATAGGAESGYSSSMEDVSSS

White Collar-1 (WC-1) (from UniProt Q01371 1-1167)
binding [1]: binds weakly
binding [2]: binds
